# Experimental data reported in the supplement of paper PMC3334620.
# In all, about 33,000 sequences were measured (“E-score (-0.5 to 0.5)”: median about -0.036, highest 2% from about 0.37 on). The list shows a part of the results.
# Biological target: T1, Yer064c (UniProt P40041)
# T1 sequence: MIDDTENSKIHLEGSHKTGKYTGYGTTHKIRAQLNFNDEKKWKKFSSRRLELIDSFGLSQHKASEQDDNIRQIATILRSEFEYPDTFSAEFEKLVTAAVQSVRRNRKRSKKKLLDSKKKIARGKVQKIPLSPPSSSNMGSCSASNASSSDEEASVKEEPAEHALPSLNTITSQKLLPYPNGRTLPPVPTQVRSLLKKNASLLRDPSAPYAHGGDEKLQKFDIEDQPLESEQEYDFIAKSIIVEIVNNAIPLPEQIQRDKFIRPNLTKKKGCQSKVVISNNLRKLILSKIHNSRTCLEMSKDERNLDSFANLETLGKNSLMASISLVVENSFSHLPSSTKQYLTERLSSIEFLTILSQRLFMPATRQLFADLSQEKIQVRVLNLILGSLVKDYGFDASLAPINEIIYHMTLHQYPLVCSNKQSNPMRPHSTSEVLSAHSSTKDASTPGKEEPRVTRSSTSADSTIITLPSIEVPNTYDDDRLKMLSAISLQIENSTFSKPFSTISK
# Experiment: PBM E-score (8-mer binding enrichment) (E-score (-0.5 to 0.5)); higher = stronger / more preferred TF binding; most listed sequences are background and not binding sites
# Conditions: protein concentration: 200 nM; construct: GST-full length
# How it was run: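 Yeast transcription factors, full-length or as DNA-binding domains, were expressed with a GST tag using PURExpress in vitro transcription/translation. At about 100-200 nM they were applied to universal all-10-mer Agilent arrays, double-stranded by primer extension on fresh or once-stripped slides. Fluorescent anti-GST detected bound protein, and masliner normalised the scans. E-scores for ungapped eight-base words, pooled with reverse complements, came from the Universal PBM Analysis Suite.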
row,Sequence,PBM E-score
1,CCCCATTA,-0.0493
2,ATTTACAC,-0.146
3,GAATGTAC,-0.0652
4,CCGGCCAG,-0.293
5,CAATGTAC,-0.12
6,GGATCAAC,0.0597
7,ATACTAGC,-0.13
8,AGCGGACT,0.222
9,ATTAGGAA,0.00918
10,AACGTTAA,0.118
11,GATTTCCC,-0.00786
12,CGGCTAAC,0.0427
13,AGCCGGTG,-0.186
14,ATCCTACC,-0.0858
15,CTCGCAGA,-0.0326
16,ACGTCCAT,-0.2
17,GAGGGTAC,-0.115
18,AGGTGATC,0.0909
19,GGAATTGA,-0.09
20,ACTAATGA,0.333
21,CACTCGTA,-0.0316
22,GGGTTACA,-0.123
23,ACGTATTA,0.026
24,ATTGAAAC,0.115
25,TCCGCTCA,-0.0402

row,Sequence,PBM E-score
1,GCACCTTA,0.0208
2,CAGGATTC,0.119
3,ACAGTCTC,0.146
4,CGATCACG,0.143
5,CGGCCACG,-0.301
6,CGCGAAGC,-0.0304
7,AGCGCAGG,-0.209
8,ACTTAGAG,0.0977
9,CAGCAGGC,0.0176
10,CGGACTAC,0.248
11,GTAGTCGA,0.263
12,AGTACATG,0.0113
13,GGGTGTAC,-0.166
14,ACCTGACA,0.145
15,ACTATGTG,0.165
16,ATTACTGG,0.171
17,CCCAGTCA,0.316
18,CCGGATCC,-0.322
19,ACTTCCGG,0.0468
20,CAGCGGTC,-0.224
21,AAGGGAGC,-0.26
22,ACCTGAAA,-0.0522
23,GATAAAGC,-0.121
24,AAGCATGT,-0.0498
25,CCGTCTGC,-0.191

row,Sequence,PBM E-score
1,AGCCAAAT,0.0167
2,AAATGTCG,-0.3
3,ATGCGGTA,-0.206
4,ACAACGAG,0.127
5,TATTACAA,0.051
6,AATCTCAT,0.196
7,CTAGGGGA,-0.0203
8,CAGTCACA,0.42
9,CTGGTGTC,-0.0248
10,ATTTTTAG,0.097
11,ACTCACGA,0.388
12,CACAATCC,0.0619
13,AAGGAGCA,-0.219
14,CTCGACAG,0.13
15,AACGAACT,0.119
16,CGGAAAGA,-0.00726
17,GAGCTGCC,-0.133
18,CCAAACTA,0.016
19,TCGTCGCA,-0.0159
20,GACACTGC,-0.249
21,CCATAACC,-0.105
22,ATGAGGCG,-0.224
23,ATCGGTTG,-0.00251
24,CTGGGGGC,-0.365
25,ACGATAGT,0.147

row,Sequence,PBM E-score
1,GGAGTTCA,0.134
2,AGCAATGA,0.147
3,TGATCACA,0.236
4,AGCAACGG,-0.185
5,CGAATTCA,-0.059
6,CCTACGTA,0.073
7,AAATGGCG,-0.213
8,CTGGATCA,0.0776
9,CGGCAATA,-0.0808
10,TAGAACTA,0.0448
11,AGCCAGGC,-0.0633
12,CAGTTCCG,-0.195
13,ATAAGCGC,-0.127
14,ATGAGTCC,0.442
15,AAATTTGG,-0.034
16,GCCAGTCC,-0.276
17,AGAGCCAT,0.225
18,AGACCCCG,-0.123
19,CTGCACTC,0.12
20,CTTGCACA,-0.0803
21,GACAAAGC,-0.153
22,AATGAGGG,-0.0827
23,CCCACGTC,-0.157
24,CGCGGCAG,-0.159
25,AGCCCGAC,-0.0445

row,Sequence,PBM E-score
1,ACCTATCT,-0.293
2,ACTGTTTC,-0.016
3,GATCGAGC,-0.119
4,GACCCCTA,-0.152
5,TATCGATA,0.0589
6,ACCTGGAT,-0.0406
7,AGCCTAAG,-0.149
8,ACGCGTAT,-0.171
9,GGAGTAGA,-0.0156
10,GTTGTCTA,-0.0929
11,ATCGACAG,-0.109
12,CACACAGA,0.127
13,AACCTATA,0.0106
14,AGCTGGTC,-0.119
15,CGTCTAAG,0.166
16,CCAAGACG,-0.211
17,ACTGTCCA,-0.0357
18,CTTGTCGA,-0.0359
19,AGTGGTCA,-0.0522
20,ATGAGGTC,-0.132
21,CAAACGAA,0.0241
22,AACAAACT,0.0934
23,CCACCCGG,-0.226
24,ACTCAAAG,0.316
25,CCTCGACC,-0.202

row,Sequence,PBM E-score
1,CTCAGCGA,0.058
2,AGCAAGCC,-0.154
3,AAGCGTGA,0.0763
4,CCGGATGA,0.152
5,CTACCGAG,0.0271
6,ACATGCAG,-0.0766
7,CTTTAATA,0.149
8,AGACAAAC,-0.0754
9,CGTCGAAC,0.026
10,CTAGTGGC,-0.0411
11,AACAGGTA,-0.197
12,AATAGGCC,-0.373
13,CGGTTTAC,-0.178
14,TTTAGAAA,0.0151
15,CGATCTCC,-0.107
16,GCTCTATA,-0.219
17,AGTCCTGA,0.274
18,AATGGACT,0.272
19,CTGACTGA,0.395
20,AAAGTGGG,0.0344
21,AATTATAT,-0.0147
22,CGCGCGAG,-0.0112
23,AGAACAAA,0.119
24,CAGCTAGC,-0.174
25,AATGGGAT,-0.259

row,Sequence,PBM E-score
1,CACGAGAG,-0.0841
2,CTAATCTC,0.196
3,TCAGCTAA,0.0494
4,GACCTGAA,0.0568
5,CGCATGTC,-0.0394
6,GATACATA,0.174
7,CGGAACCG,-0.161
8,CGTAACCA,0.0576
9,CCTTCCCC,-0.161
10,ACACCAGA,0.127
11,AAACGTTA,0.0413
12,CCAAGGGC,-0.109
13,AAAATCCG,0.0517
14,ATACTATA,-0.0244
15,AAAATCGA,0.0463
16,GCGTCTGA,0.00896
17,CTGAGGCA,-0.136
18,CAACTCAA,0.03
19,CGTAAAAG,0.0646
20,CGATGCGC,-0.176
21,AACGATAT,0.228
22,CATTGAGC,0.129
